Measured values from the RNAGym collection of RNA variant scans (doi:10.7554/elife.90254).
Read counts are not given, so values of variants with three or more changes are uncertain.

B1: LINE1-mini (parent)
chain: GGCAGAGCUCAACACAGCGUGGCAAAGUGGCUGUGGCUAGACUGCC

Variants of: B1
Assay: self-cleavage, relative activity (ratio to wild type); higher = more cleavage; in vitro, sequencing; the parent is a self-cleaving ribozyme

Variant	self-cleavage
GGCAGAGCUCAACACAGCGUGAUAAAGUGGCUGCGGCUAGACUGAC	0.04
GGCAGAGCUCAACACAGCGUGACAAAGUGGCUGUGGAUAGACUGCU	0.05
GGCAGAGCUCAACACAGCGUGACAAACUGGCUGUGGCUAGACCGCC	0.04
GGCAGAGCUCAACACAGCGUGCCAAGGUGGCUGUGGCUAGACCGCC	0.29
GGCAGAGCUCAACACAGCGUGACAAGGAGGCUGUGGCUAGAAUGCC	0.08
GGCAGAGCUCAACACAGCGUGACAAAGGGGCUGUAGCUAGGCUGCG	0.1
GGCAGAGCUCAACACAGCGUGCCAAUGUGACUGUGGCUAAACUGCC	0.08
GGCAGAGCUCAACACAGCGUGACAAAUUGGCUUUGGCUUGACUGCC	0.39
GGCAGAGCUCAACACAGCGUGACAACAUGGCCGUGGCUAGACUGCC	0.68
GGCAGAGCUCAACACAGCGUGACAAAGUGGCUGUGGCUUGACUGAC	0.48
GGCAGAGCUCAACACAGCGUGACAAAGUGGCCGUGGCUGGACUGCC	0.05
GGCAGAGCUCAACACAGCGUGAUAAAGUCGCUGUGGCUAGACUGCC	0.63
GGCAGAGCUCAACACAGCGUGACAAAGUGUCUGUGGCUAGACUACC	0.77
GGCAGAGCUCAACACAGCGUGACAAAUUGGCUGUGGCUAGUCUGCC	0.54
GGCAGAGCUCAACACAGCGUGACAAAGUGGCUGUGCCUAGACUGCA	0.04
GGCAGAGCUCAACACAGCGUGCCUAGGUGGCUGUGGCUAUACUGCC	0.12
GGCAGAGCUCAACACAGCGUGACACAGUGGCUGUGCCUAGACGGCC	0
GGCAGAGCUCAACACAGCGUGCAAAAGUAGCUGCGACUAGACUGCC	0.12
GGCAGAGCUCAACACAGCGUGACAAAGUAGCUGUGGCUAGAUUCCC	0.07
GGCAGAGCUCAACACAGCGUGCCAAAGUGGCUGUGGCUCGACCGCC	0.02
GGCAGAGCUCAACACAGCGUGACAAAGUGGCUGUGGUUAUACUGCC	0.11
GGCAGAGCUCAACACAGCGUGCCCAAGUGGCUGGGGCUAGACUGCC	0.22
GGCAGAGCUCAACACAGCGUGACAAAGUGGCUGUGUCUACACUGCC	0.08

Variant	self-cleavage
GGCAGAGCUCAACACAGCGUGCCUAAGUGGCUGUGUCUAGACUGCC	0.07
GGCAGAGCUCAACACAGCGUGCCUAAGUGGCUGUGGCUUGAUUGCC	0.33
GGCAGAGCUCAACACAGCGUGCAAAAGUGGCUGUUGCUUGACUGCA	0.07
GGCAGAGCUCAACACAGCGUGACAAAUUGGCUGUGGCUUGACUGCC	0.73
GGCAGAGCUCAACACAGCGUGCCAAAGUGGCUGUGGCUUGACCCCC	0.03
GGCAGAGCUCAACACAGCGUGACACAGUGGCUGUGGCUCGACUGCC	0.11
GGCAGAGCUCAACACAGCGUGACAAAGUAUCUGUGGCUAGACUGCC	2.79
GGCAGAGCUCAACACAGCGUGACAAAGUGACUGUGGCUAGACGGCC	1.79
GGCAGAGCUCAACACAGCGUGACAAAGUGGCUGUUGCUAGAUUGCC	0.11
GGCAGAGCUCAACACAGCGUGACAAAGUGGAUGUGGCUAUACUGCC	0.04
GGCAGAGCUCAACACAGCGUGACAAAGUGGCUGUGGCUAGGCUGUC	0.25
GGCAGAGCUCAACACAGCGUGACAGAGUGGCUGUGGCUGGACUGCC	0
GGCAGAGCUCAACACAGCGUGACAAAGUGGAUGUGGCUAGUCUCCC	0.04
GGCAGAGCUCAACACAGCGUGACAAAGUGGCUUUGCCUAGACGGCC	0
GGCAGAGCUCAACACAGCGUGACAAAGUGUCUGUGGCUAGACCGCC	0.05
GGCAGAGCUCAACACAGCGUGCCAAUGUGCCUGUGUCUAGAAUGCG	0.06
GGCAGAGCUCAACACAGCGUGACGAAGUGGCUGUGGCUAGACCGCC	0.12
GGCAGAGCUCAACACAGCGUGACAAACUGGCUCCGGCUAGGCUGCC	0.04
GGCAGAGCUCAACACAGCGUGCAAAAGUGGCUGGGGCUAGACUGCC	0.41
GGCAGAGCUCAACACAGCGUGAGAAAGUGACUGUGGCUAGACUGCC	2.03
GGCAGAGCUCAACACAGCGUGAGAAAGUGUCUGUGGCUAGACUGCC	0.92
GGCAGAGCUCAACACAGCGUGACAAGGUGGCUGUGGAUAGACUGCC	0.01
GGCAGAGCUCAACACAGCGUGACAAAGUUGCUGUGGCAAGACUGCC	0.06

Variant	self-cleavage
GGCAGAGCUCAACACAGCGUGACAAAGUGGCUGUGGCUAGUCUGCA	0.52
GGCAGAGCUCAACACAGCGUGACAAAGUGGCUGUCGCAAGACUGCC	0.02
GGCAGAGCUCAACACAGCGUGACAAUGUAGCUUUGGCUAGACUGCC	0.36
GGCAGAGCUCAACACAGCGUGCAAAAGCGGCUGUGACAAGACUGCC	0.01
GGCAGAGCUCAACACAGCGUGCCAUAGUGGAUGUGGCUAGACUGCC	0.16
GGCAGAGCUCAACACAGCGUGACAAAGUGGGUUUGGCUAGACAGCC	0.08
GGCAGAGCUCAACACAGCGUGACAAAGUGGCUGGGGGUAGACUGCC	0.04
GGCAGAGCUCAACACAGCGUGACAAAGUGGCUGUGUUUAGACUGCC	0
GGCAGAGCUCAACACAGCGUGACAAAGUGUCGGUGGCUAGACUGCC	0.02
GGCAGAGCUCAACACAGCGUGACUAAGGGGAUGUGGCUAGACUGUC	0.04
GGCAGAGCUCAACACAGCGUGACAAAGUGGCUAUGGCUAGCCUUCC	0.02
GGCAGAGCUCAACACAGCGUGACAAAGUGGCUCUGGCUAGACUAGC	0.11
GGCAGAGCUCAACACAGCGUGACAAAGCGGCUGUUGCUAGACUGCC	0.08
GGCAGAGCUCAACACAGCGUGACAAAGUGGCUGUGUCUGGACUGCC	0.04
GGCAGAGCUCAACACAGCGUGACAAAGUGGCUUUGGCUACUCUGCC	0.12
GGCAGAGCUCAACACAGCGUGACAAAGUGGCCGUGGCUCGACUUCC	0.08
GGCAGAGCUCAACACAGCGUGACACAGUUGCUGGGGCUAGACUGCC	0.12
GGCAGAGCUCAACACAGCGUGACAAAAUGGCCGUGGCUAGACUGCC	0.24
GGCAGAGCUCAACACAGCGUGCCAAUGUGGUUGUGGCUAGACUGCC	0.18
GGCAGAGCUCAACACAGCGUGACAAUGUGGCUGUGGAUAGACUGCC	0.06
GGCAGAGCUCAACACAGCGUGACAAAGUGGCUGUGGCUAGUAUGCC	0.08
GGCAGAGCUCAACACAGCGUGACAAAGUGGCUGUGGCUAGUGUGCC	0.08
GGCAGAGCUCAACACAGCGUGACAAAGUGGGUGUGGAUAGACUGCC	0.04

Variant	self-cleavage
GGCAGAGCUCAACACAGCGUGAUAAAGUGGCUGUGGCUAGACUUCC	0.19
GGCAGAGCUCAACACAGCGUGACAAGGUGCCUGUGGAUAGACUGCC	0.1
GGCAGAGCUCAACACAGCGUGAUAAUGUGGCUGUGGCUAUACUGCC	0.05
GGCAGAGCUCAACACAGCGUGACAAAUUGGCUGUAGCUAGACUGCC	0.11
GGCAGAGCUCAACACAGCGUGACAAAGUGGCUGUGGCUAUACUGAC	0.07
GGCAGAGCUCAACACAGCGUGAUAAAGUCGCUGUGGCUCGACUGCC	0.02
GGCAGAGCUCAACACAGCGUGCCAAAGUGGCUGUGGCUAGCCUGCA	0.04
GGCAGAGCUCAACACAGCGUGCCACAGGGGCUGUGGCUAGACUUGC	0.13
GGCAGAGCUCAACACAGCGUGACAAAAUGGCUGUGGUUAGACUGCC	0.04
GGCAGAGCUCAACACAGCGUGCCUAAGUGGCUGUGGCUAGACUGCA	0.13
GGCAGAGCUCAACACAGCGUGCAAAAGUGGCUGUGACUAGACUGCC	0.05
GGCAGAGCUCAACACAGCGUGACAAAGUGGAUGUGGAUAGACUGCC	0.03
GGCAGAGCUCAACACAGCGUGCCAAUGUGGAUGUGGCUAGACUACC	0.06
GGCAGAGCUCAACACAGCGUGCGUAAGUGGAUGUGGCUAGACUGCC	0.96
GGCAGAGCUCAACACAGCGUGACAAAGUGGAUGUGUCUAGACUGCC	0.04
GGCAGAGCUCAACACAGCGUGACAUCUUGGCUGUGGCUAGACUGCC	0.59
GGCAGAGCUCAACACAGCGUGACCAAGUGGCUGUGGCUAGGCUGCC	0.4
GGCAGAGCUCAACACAGCGUGCCAUAGUGGCUACGGCUAGACUUCC	0.03
GGCAGAGCUCAACACAGCGUGAAAAAGUGGCUGGGGCUAGACUGCC	0.44
GGCAGAGCUCAACACAGCGUGACAAAGUGGCUGUGGCUGGUCAGCC	0.04
GGCAGAGCUCAACACAGCGUGACAAAGAGGCUGUUGAUAGACUGCG	0.08
GGCAGAGCUCAACACAGCGUGACUAAGUGGCUGGGGCUAGACUGCC	0.72
GGCAGAGCUCAACACAGCGUGAUAAAGUGGCUAUGGCUAGACUGCC	0.25

Variant	self-cleavage
GGCAGAGCUCAACACAGCGUGCCUAAGUAGCUGUGGCUAGACUGCC	2.37
GGCAGAGCUCAACACAGCGUGCCAGAGUGGCUGUGGCUAAACUGCC	0.01
GGCAGAGCUCAACACAGCGUGAAAUAGUGGCUGUGGCUAAACUGCC	0.15
GGCAGAGCUCAACACAGCGUGACAAUGUGGCUGUGGCUAUACUGCC	0.13
GGCAGAGCUCAACACAGCGUGACAGACUGGCUGUGGCUAGACUGCC	0.33
GGCAGAGCUCAACACAGCGUGACACAGUGGCUGUGGCUAGACUGAC	0.26
GGCAGAGCUCAACACAGCGUGACAAAGUGGCAGUGGCUGGACUGCC	0.02
GGCAGAGCUCAACACAGCGUGACAAAGUGGCUGUGGGUAGAUUGCC	0.02
GGCAGAGCUCAACACAGCGUGACAAAGUUGCUGUGGCUAGACUGCA	0.33
GGCAGAGCUCAACACAGCGUGACGUAGUGUCUGUGGCUAGACUGCC	0.42
GGCAGAGCUCAACACAGCGUGAUAAAGUGGCUGUGGCUCUACUGCC	0.14
GGCAGAGCUCAACACAGCGUGAAAAAGUGACUGUGGCUACACUGCC	0.26
GGCAGAGCUCAACACAGCGUGACAACAUGGCUGUGGCUAGACUGCC	0.29
GGCAGAGCUCAACACAGCGUGACAACGUGGCUGUGGCUAGACUGUC	1.09
GGCAGAGCUCAACACAGCGUGCCGAAGUGGCGGUGGCUAGACUGAC	0.07
GGCAGAGCUCAACACAGCGUGCCGAAGUGGCUAUGGCUAGACUGCA	0.04
GGCAGAGCUCAACACAGCGUGACAAAAUGGCUGUGGCUAGACUCGC	0.04
GGCAGAGCUCAACACAGCGUGCCUAAGUGGCUGUAGCUAGACUGCA	0.02
GGCAGAGCUCAACACAGCGUGACAAAGUGGUAGUGGCUAGACUGCC	0.08
GGCAGAGCUCAACACAGCGUGACAAAGAGGCUGUGUCUAGACUGCC	0.04
